Measured values reported in the supplement of paper PMC5499739.
Whole data set: some 16,000 sequences, median “Z-score” near -0.37, cut for the highest 2% near 3.2. The list shows a part of the results.

These sequences were tested on RBM10 RRM1-ZnF (GST-tagged construct) (assay: RNAcompete 7-mer binding Z-score; higher = stronger binding preference).
Outline: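 Bound RNA was identified by microarray hybridisation after GST-tagged RBM10 constructs (20 pmol) had been mixed with 1.5 nmol of a designed pool of 241 399 RNAs up to 41 nt, transcribed from microarray-derived DNA templates. Binding ran for 30 min at 4°C in 1 ml Hepes pH 7.8 buffer with KCl, NaCl, glycerol, DTT, BSA and glutathione Sepharose beads, with four 2-min washes at 4°C afterwards. For every heptamer motif, a one-sided Z-score for enrichment was computed across the probes that contained it.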

| Sequence | RNAcompete 7-mer binding Z-score |
| --- | --- |
| ACAGGAU | 1.24 |
| GCUGGCA | 0.163 |
| UGACCAG | -0.0609 |
| CAAAUAA | -0.451 |
| CUGUCCC | -0.652 |
| UCACCCC | -0.334 |
| GUAGGUC | 1.11 |
| CGAGAUA | -0.0707 |
| GCAAACC | -0.412 |
| GCCGCAC | -0.506 |
| GAAUCGU | -0.337 |
| AUCGCGA | -0.386 |
| GGACUGU | 0.498 |
| AGUCGUU | -0.191 |
| UGUGCCA | -0.542 |
| ACGUUAG | -0.233 |
| AUCCUCA | -0.805 |
| GUGUUUU | 0.134 |
| CUACACU | -0.594 |
| CCUGCCA | -0.831 |
| UCCUUAU | -0.844 |
| GACUGUG | -0.119 |
| UGCAAAA | -0.415 |

| Sequence | RNAcompete 7-mer binding Z-score |
| --- | --- |
| CCCCUUA | -0.646 |
| UGAAUCA | 0.0105 |
| AGUAAGU | 0.137 |
| ACCGUGG | 0.329 |
| UCCCCGU | -0.425 |
| AGAAUGG | 3.27 |
| UAAAGCA | -0.311 |
| UCAAGGG | 1.16 |
| AAACUUU | -0.772 |
| UGAGUCA | -0.11 |
| UAGUUGC | -0.22 |
| AGGGGGU | 3.09 |
| GUGAUCC | -0.262 |
| CCCUGAG | -0.311 |
| CUGAUGC | -0.5 |
| GUAAAAA | 0.144 |
| AGCUGGG | 2.33 |
| AACAUGU | -0.181 |
| GUACAUG | 0.823 |
| AGCUAUG | -0.168 |
| ACCUAUG | -0.753 |
| CUAACUG | -0.444 |
| CGAAGCC | -0.483 |

| Sequence | RNAcompete 7-mer binding Z-score |
| --- | --- |
| GCAGCUU | -0.418 |
| CCUAUCA | -0.854 |
| GAGGCUU | -0.223 |
| GGCAAUG | 1.23 |
| CAGCUUG | -0.529 |
| CGAACUU | -0.789 |
| CGGUGAG | 1.42 |
| GAAUCAG | 0.469 |
| AGCUAGC | -0.487 |
| GCCCUCG | -0.552 |
| UUCACCG | -0.694 |
| ACUAAUC | -0.552 |
| CGAAGCU | -0.691 |
| UCCAUCG | -0.655 |
| UACCCUC | -0.756 |
| GCAGUGG | 1.75 |
| GGUACUG | 0.966 |
| UUUGAUA | -0.444 |
| GACAACA | -0.311 |
| AUAUUUA | -0.668 |
| UGCGGGG | 3.26 |
| UGAAAGA | 0.261 |
| UCCGCAG | -0.464 |

| Sequence | RNAcompete 7-mer binding Z-score |
| --- | --- |
| UCAACUG | -0.477 |
| GUUCGGA | -0.0739 |
| CUUGAAG | -0.412 |
| CUCUUAU | -0.863 |
| AUUUACG | -0.555 |
| CCCAUGG | 0.0528 |
| CCAUAGG | -0.347 |
| UAGCAUA | -0.412 |
| UAGCCCC | -0.48 |
| AACUAGG | 0.199 |
| AGGCGUA | 0.459 |
| CGUGACA | -0.282 |
| AAGCGGA | 2.21 |
| UUGCCUU | -0.808 |
| ACACUGU | -0.487 |
| GAGUUGU | 0.0983 |
| AAAUAAA | -0.467 |
| GUUGCGG | 1.46 |
| GCUGUUA | -0.607 |
| CCGCGCG | -0.282 |
| UAACCCA | -0.571 |
| UUAACCA | -0.548 |
| UAGCGGC | -0.132 |

| Sequence | RNAcompete 7-mer binding Z-score |
| --- | --- |
| GGAAUCA | 0.693 |
| ACAUUUG | -0.565 |
| CAUCGAA | -0.565 |
| UCAUGGG | 1.29 |
| UCCUCAU | -0.808 |
| GCUGGUG | 1.4 |
| CCUUCUA | -0.821 |
| AUGGAUU | 1.71 |
| UACAUUG | -0.506 |
| GUUCGUC | -0.256 |
| AUAAAAA | -0.412 |
| UACUUAA | -0.681 |
| AAUGACU | -0.269 |
| AAACCGC | -0.75 |
| UAUGUAC | -0.152 |
| UUGCAGA | -0.171 |
| CCCCCGG | 0.102 |
| UUUUGCA | -0.688 |
| CGCGAAU | -0.6 |
| GUUGCUC | -0.545 |
| CCCUUCG | -0.746 |
| CAGCCUA | -0.828 |
| GCUGAAG | 0.699 |

| Sequence | RNAcompete 7-mer binding Z-score |
| --- | --- |
| GUGCGGG | 3.06 |
| UUAACCC | -0.665 |
| UCGAGGU | 0.647 |
| AGAUUUG | 0.192 |
| GCGAUAC | -0.331 |
| UCAAUUU | -0.912 |
| CCUGAAC | -0.694 |
| GAUAGUA | 0.287 |
| CUCUCAU | -0.795 |
| CGAAUGC | -0.594 |
| CUCCCGG | 0.0983 |
| AUUACCU | -0.753 |
| GCACUUU | -0.886 |
| CAGGAAC | 0.586 |
| CUUUCUU | -0.922 |
| UUUCCCU | -0.821 |
| GUUCUUU | -0.613 |
| GAACCGU | -0.604 |
| UGUAAAG | 0.173 |
| AGACCCG | -1.07 |
| AAUAAAG | 0.0235 |
| UUUGUCG | -0.431 |
| GUAUUCG | -0.136 |

| Sequence | RNAcompete 7-mer binding Z-score |
| --- | --- |
| AACUUCU | -0.811 |
| AACACCU | -0.958 |
| ACUGCUG | -0.675 |
| AGGAUAU | 1.22 |
| AGGGUGC | 2.6 |
| GAUUACU | -0.574 |
| GCUGCUU | -0.396 |
| GAGUAUA | 0.339 |
| CAUCUCC | -0.694 |
| GGUUAUU | 1.04 |
| GCUCCCU | -0.548 |
| CUUAAAC | -0.678 |
| UUUAACU | -0.782 |
| AUCGUGA | -0.132 |
| UUUAUAA | -0.578 |
| GGACCGG | 1.32 |
| AGCGUUU | -0.37 |
| CGGCCAG | -0.0122 |
| UUGCAUG | -0.331 |
| GGAGGAA | 2.93 |
| ACUCGGG | 0.667 |
| AUCAGGU | 0.771 |
| UCCAUGU | -0.662 |

| Sequence | RNAcompete 7-mer binding Z-score |
| --- | --- |
| CUGUAAG | -0.363 |
| GGACCUU | -0.438 |
| CAGAUUU | -0.841 |
| ACGUCGA | -0.288 |
| CGAGAUU | -0.347 |
| CUAGGCC | -0.62 |
| AUAGUAA | 0.131 |
| UGGAUCC | 0.202 |
| GGUAGGG | 4.7 |
| GCCCGCC | -0.132 |
| CAGUUCC | -0.766 |
| AUUGCGU | -0.275 |
| GGGCAAG | 2.5 |
| AAUCGAG | 0.0658 |
| CCCUAGU | -0.704 |
| UGGUUGG | 2.53 |
| CACAGAU | -0.428 |
| GCGGCGA | 0.849 |
| ACGGGUU | 2.65 |
| GAGAAGG | 4.53 |
| UUGACAC | -0.301 |
| UGCUUCG | -0.652 |
